± gives the standard deviation. Only a part is listed here, and it is no random draw.
System: MIWI (PIWIL1) piRISC loaded with L1MC piRNA (30 nt)
Assay: pre-steady-state target cleavage rate (min^-1); MIWI and MILI are mouse PIWI proteins and EfPiwi is from a freshwater sponge; tags in brackets are library labels; higher = faster piRNA-guided slicing of the target
Details: guide: L1MC piRNA 5'p-UAACUAAAUACUAUGCAAGCUGUAGGUCCU; auxiliary factor: none (no GTSF1)
Summary of the method: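 A transcribed, DNA-blocked target RNA library (0.1 nM) and 1 nM active affinity-purified piRISC bearing one synthetic guide were incubated in HEPES–potassium acetate buffer at 33 °C for 0–8 or 0–960 min, either with or without 500 nM GTSF1 partner protein. Uncleaved targets were sequenced, normalised to depth and to weakly complementary targets, and pooled over three trials, with k3 capped at 0.0001 min^-1. The pre-steady-state cleavage rate was derived with a burst-and-steady-state fit.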

| Sequence | pre-steady-state target cleavage rate |
| --- | --- |
| AGGAGCUACAGCUUGCAUACUAUUUAGUUA | 0.0371 ± 0.0072 |
| UCCUGCUACAGCUUGCAUAGUAUAUAGUUA | 0.0162 ± 0.0032 |
| UCCUGGAUGAGCUUGCAUAGUAUUUCGUUA | 0.0211 ± 0.0053 |
| UCCACCUACAGCUAGCAUAGUAUUUAGAUA | 0.00554 ± 0.0024 |
| ACCACCUACAGCUUGCAUAGUAUUUAGUAA | 0.0445 ± 0.011 |
| UCCACCUACAGCUUGCAUCGUAUUUAGUUA | 0.0298 ± 0.0056 |
| UCGACCUACACCUUGCAUAGUAUUUACAAA | 0.00595 ± 0.0018 |
| UCCUCCUACAGCAUGCUUAGUAUUUAGUUA | 0.00816 ± 0.0015 |
| AGGACCUACAGCUAGCUUAGUAUUUAGUUA | 0.0127 ± 0.0031 |
| UGGACCAACAGCUUGCUUAGUAUUUAGUUA | 0.0497 ± 0.01 |
| UCCUGGAUCAGCUAGCAUAGUAUUAAGUUA | 0.00395 ± 0.0028 |
| UGGUCCUACAGCUUGCAUAGUAUUUAGAAA | 0.0162 ± 0.0043 |
| UCCUGCAACAGCUUGCAUACUAUUUAGUUA | 0.0344 ± 0.0091 |
| UCCUGGAUGAGCUUGCAUAGUAUUUAGUUC [g2:g21:cont:t1C] | 0.0311 ± 0.0083 |
| UCCACGAUCAGCUUGCAUAGUAUUUUCAAA | 0.00391 ± 0.0024 |

From the supplement of paper PMC10338343
